Experimental data published in paper PMC4336329 (PLoS ONE, 2015).
The campaign covered roughly 310,000 compounds. About 2,200 (0.71%) showed an effect of 50% or more. Effects have a minus sign here. The list shows a part of the results.

target: human ether-à-go-go-related gene (hERG) potassium channel (human, UniProt Q12809); assay: primary screen, population patch clamp on CHO cells stably expressing hERG
Sequence (Q12809 whole entry, looked up): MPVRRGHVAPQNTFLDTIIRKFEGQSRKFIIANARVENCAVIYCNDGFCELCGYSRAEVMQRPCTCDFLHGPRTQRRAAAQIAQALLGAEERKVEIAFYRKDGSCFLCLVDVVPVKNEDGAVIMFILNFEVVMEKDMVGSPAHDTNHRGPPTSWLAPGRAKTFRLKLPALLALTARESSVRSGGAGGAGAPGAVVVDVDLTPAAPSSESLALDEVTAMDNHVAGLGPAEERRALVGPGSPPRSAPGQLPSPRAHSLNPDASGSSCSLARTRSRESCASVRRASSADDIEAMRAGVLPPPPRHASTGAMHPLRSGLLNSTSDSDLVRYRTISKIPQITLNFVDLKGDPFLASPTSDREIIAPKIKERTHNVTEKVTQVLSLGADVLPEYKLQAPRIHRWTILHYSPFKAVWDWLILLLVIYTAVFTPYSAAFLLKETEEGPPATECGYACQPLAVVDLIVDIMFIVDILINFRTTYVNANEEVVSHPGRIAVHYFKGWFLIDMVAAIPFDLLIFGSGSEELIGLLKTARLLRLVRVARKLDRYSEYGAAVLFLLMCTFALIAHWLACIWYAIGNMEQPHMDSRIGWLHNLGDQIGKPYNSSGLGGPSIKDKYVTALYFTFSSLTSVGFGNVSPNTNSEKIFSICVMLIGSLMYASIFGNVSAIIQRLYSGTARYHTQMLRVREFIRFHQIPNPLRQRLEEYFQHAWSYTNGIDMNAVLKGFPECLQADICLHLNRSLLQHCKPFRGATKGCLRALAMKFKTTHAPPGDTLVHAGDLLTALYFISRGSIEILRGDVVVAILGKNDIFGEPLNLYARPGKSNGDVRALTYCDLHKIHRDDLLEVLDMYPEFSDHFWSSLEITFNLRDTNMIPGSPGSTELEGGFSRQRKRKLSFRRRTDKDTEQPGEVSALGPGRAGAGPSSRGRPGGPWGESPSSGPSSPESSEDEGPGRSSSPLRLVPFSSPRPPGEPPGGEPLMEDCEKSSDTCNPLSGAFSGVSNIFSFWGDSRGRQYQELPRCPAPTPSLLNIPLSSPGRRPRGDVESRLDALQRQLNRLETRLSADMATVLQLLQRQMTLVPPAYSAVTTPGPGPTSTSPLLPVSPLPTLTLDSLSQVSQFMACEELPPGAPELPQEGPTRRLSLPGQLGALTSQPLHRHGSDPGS

Row | SMILES | hERG current change (%, negative = inhibition) at 1uM [%]
1 | CCOC(=O)CSc1nc2cc(OC)ccc2cc1C#N | 14.3
2 | Cc1ccccc1N1CCN(Cc2ccc([N+](=O)[O-])o2)CC1 | 12
3 | CCOC(=O)/C(=N\Nc1ccc(OC)cc1)c1csc(Nc2ccccc2)n1 | 10.2
4 | CSc1nc2sc3c(c2c(=O)n1C)CCCC3 | 6.11
5 | CC1(C)Cc2c(sc(NC(=O)C3CC(Cl)=CCC3C(=O)O)c2C#N)CO1 (stereo not shown) | 14.3
6 | COc1ccc(NC(=O)C2CCC(CNS(=O)(=O)c3cccs3)CC2)cc1 (stereo not shown) | 14.2
7 | O=C(NCCCOc1cccc(CN2CCCCC2)c1)c1ccc(Cl)c(Cl)c1.O=C(O)C(=O)O | -1
8 | Cc1cc(NC(=O)C(C)SCC(=O)N(C)CC(=O)Nc2ccccc2Br)no1 (stereo not shown) | 14.6
9 | CC(=O)Nc1ccc(NC(=O)C(Cc2ccccc2)NC(=O)C2CCCCC2)cc1 (stereo not shown) | 10.1
10 | CN(Cc1cnccn1)Cc1c(C(=O)N2CCc3ccccc3C2)nc2ccc(Cl)cn12 | -1.17
11 | COc1ccccc1CCNC(=O)CN1C(=O)NC2(CCCC2)C1=O | -22.4
12 | C=CCOc1ccc(CN(C)C(=O)C2CCCO2)cc1 (stereo not shown) | 10.8
13 | CC(C)(C)n1cnc2cc(NC(=O)c3ccc(Cl)cc3)ccc21 | -9.1
14 | CCOc1ccc(/C=N/Nc2cc(=O)n(C)c(=O)n2C)cc1 | 14.2
15 | CCC(NC(=O)c1ccccc1NC(=O)c1ccco1)C(=O)O (stereo not shown) | 13
16 | Cc1csc(CNc2ncnc3ccc(-c4ccoc4)cc23)c1 | 13.8
17 | CCOC(=O)C1(Cc2ccccc2)NC(c2ccccc2F)C2C(=O)N(CC)C(=O)C21 (stereo not shown) | 7.22
18 | COc1ccc(N2CCN(C(=O)C3CCN(S(=O)(=O)c4ccc(C)cc4)CC3)CC2)cc1 | 3.69
19 | O=C(NCC1CCCO1)c1cc(S(=O)(=O)Nc2ccc(Br)cc2)ccc1Cl (stereo not shown) | 19
20 | CCn1c(/C=C/c2ccccc2Cl)nc2ccccc2c1=O | 14.5
21 | CN(C)CCN(C(=O)C1CCN(S(=O)(=O)c2cccs2)CC1)c1nc2ccccc2s1.Cl | 15.7
22 | CC(C)C(=O)Nc1cccc(C(=O)Nc2nnc(C(C)C)s2)c1 | 14

Row | SMILES | hERG current change (%, negative = inhibition) at 1uM [%]
23 | Nc1ccc2c(c1)-c1ccccc1S(=O)(=O)N2 | 3.37
24 | CCC(=O)NC(=S)Nc1ccc(NC(=S)NC(=O)c2ccc(C)cc2)cc1 | 15.6
25 | COc1ccccc1/C=C1\SC(=S)N(CCC(=O)NCCc2ccc(O)cc2)C1=O | 15.9
26 | Cc1ccc(/C=N/N2C(=O)c3ccccc3NC2c2ccc(C)cc2)cc1 (stereo not shown) | 13.4
27 | O=C(CCNC(=O)c1ccco1)Nc1ccc(SC(F)F)cc1 | -15.9
28 | CC(Sc1ccccc1)C(=O)NNC(=O)c1ccncc1 (stereo not shown) | 10.9
29 | CCN1CCN(C(=O)c2ccc(Cn3c(=O)[nH]c4cc(OC)c(OC)cc4c3=O)cc2)CC1 | 7.05
30 | COc1cc2c(cc1OC)CN(C(=O)c1ccc(Br)o1)CC2 | 3.62
31 | O=C(C1CCC(CNc2c(N3CCCCC3)c(=O)c2=O)CC1)N1CCN(C2CCCCC2)CC1 (stereo not shown) | 10.7
32 | CCOc1cc(/C=N\Nc2ncc(F)c(N3CCOCC3)n2)ccc1Oc1nc(Cl)ncc1F | 1.85
33 | CCOC(=O)c1ccc(NC(=S)NCCCn2ccnc2)cc1 | 10.6
34 | COc1cc(C(=O)OCCCc2cc3ccccc3c(=O)o2)cc(OC)c1OC | 6.26
35 | Cc1ccc(CNC(=O)CN2CCN(Cc3ccc(C)cc3)C2=O)cc1 | -4.83
36 | O=C(NCCc1ccc(Cl)cc1)C1CCN(C(=O)c2sccc2-n2cccc2)CC1 | -1.16
37 | Cc1ccc(NC(=O)COC(=O)Cc2cccs2)cc1S(=O)(=O)N1CCOCC1 | 4.46
38 | CCn1c(CNc2ccc(F)cc2)nnc1SCC(=O)Nc1ccccc1OC | -4.63
39 | COc1ccc(CC(=O)n2nc(-c3ccccc3)nc2NCc2ccco2)cc1 | 6.29
40 | Cc1cc2ccc(C)c(C)c2nc1SCC#N | 4.84
41 | O=C(NCc1ccccn1)c1nnc(Cc2ccc(Cl)cc2)o1 | 7.66
42 | CC(=O)c1c(C)[nH]c(C(=O)NCCC2=CCCCC2)c1C | 7.29
43 | COCCCNC(=O)/C(C#N)=C/c1c(N2CCN(c3ccccc3)CC2)nc2c(C)cccn2c1=O | 1.57
